Test results reported in the supplement of paper PMC12217912.
Some of the results follow. The full chains were built here from the parent and the listed change. Values near 0.05 are background.

B1: TEV protease; numbered along this chain (parent)
chain: MGESLFKGPRDYNPISSSICHLTNESDGHTTSLYGIGFGPFIITNKHLFRRNNGTLVVQSLHGVFKVKDTTTLQQHLVDGRDMIIIRMPKDFPPFPQKLKFREPQREERICLVTTNFQTKSMSSMVSDTSCTFPSGDGIFWKHWIQTKDGQCGSPLVSTRDGFIVGIHSASNFTNTNNYFTSVPKNFMELLTNQEAQQWVSGWRLNADSVLWGGHKVFMVKPEEPFQPVKEATQL

Variants of: B1
Assay: raw area under fraction-flipped curve 0-4 h after induction (AUC4h, not background-subtracted), DNA-recorder readout of cleavage of the substrate (dimensionless); higher = more cleavage of the substrate by the protease variant
Conditions: temperature: 34 °C; time window: 0-4 h after rhamnose induction
Experimental: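 In vivo DNA recorder in E. coli TOP10(DE3) ΔrhaA at 34 °C. Each TEVp single-site mutant (parent TEVp 0) is paired with a single-site variant of the 7-mer TEVs (canonical ENLYFQ|S). The substrate sits between flexible linkers in a Bxb1-sfGFP-TEVs-SsrA fusion, so cleavage stabilises Bxb1 and speeds flipping of a recombination array, read by NGS. The value is the raw area under the fraction-flipped curve over 0-4 h after rhamnose induction (AUC4h), with ≥20 reads per time point. It is not background-subtracted; inactive controls average about 0.047.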
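Further: Bxb1 expression induced with 0.2% (w/v) L-rhamnose at OD600 near 0.5, cultures sampled hourly, flipped fraction per protease–substrate barcode pair counted by paired-end Illumina sequencing.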

Variant	area with substrate ANLYFQS	area with substrate CNLYFQS	area with substrate DNLYFQS	area with substrate FNLYFQS	area with substrate GNLYFQS	area with substrate HNLYFQS	area with substrate INLYFQS	area with substrate KNLYFQS	area with substrate LNLYFQS	area with substrate MNLYFQS	area with substrate NNLYFQS	area with substrate PNLYFQS	area with substrate RNLYFQS	area with substrate SNLYFQS	area with substrate TNLYFQS	area with substrate VNLYFQS	area with substrate WNLYFQS	area with substrate YNLYFQS	area with substrate QNLYFQS
MGESLFKGPRDYNPISSSICHLTNESDGHTTSLYGIGFGPFIITNKHLFRRNNGTLVVQSLHGVFKVKDTTTLQQHLVDGRDMIIIRMPKDFPPFPQKLKFREPQREERICLVTTNFQTKSMSSMVSDTSCTFPSGDGIFWKHWIQTKDGQCGSPLVSTRDGFIVGIHSASNFTNTNNYFTSVPKNFMELLTNQEAQQWVSGWRLNADSVLWGGWKVFMVKPEEPFQPVKEATQL [H215W]	0.0542	0.0514	0.0816	0.0577	0.0731	0.0541	0.0573	0.0422	0.0676	0.0565	0.0601	0.0755	0.0532	0.0714	0.063	0.0588	0.0545	0.0591	
MGESLFKGPRDYNPISSSICHLTNESDGHTTSLYGIGFGPFIITNKHLFRRNNGTLVVQSLHGVFKVKDTTTLQQHLVDGRDMIIIRMPKDFPPFPQKLKFREPQREERICLVTTNFQTKSMSSMVSDTSCTFPSGDGIFWKHWIQTKDGQCGSPLVSTRDGVIVGIHSASNFTNTNNYFTSVPKNFMELLTNQEAQQWVSGWRLNADSVLWGGHKVFMVKPEEPFQPVKEATQL [F163V]	0.0879	0.0528	0.121		0.0633		0.0517		0.0654		0.0695	0.0721			0.0932	0.0641	0.0798		
MGESLFKGPVDYNPISSSICHLTNESDGHTTSLYGIGFGPFIITNKHLFRRNNGTLVVQSLHGVFKVKDTTTLQQHLVDGRDMIIIRMPKDFPPFPQKLKFREPQREERICLVTTNFQTKSMSSMVSDTSCTFPSGDGIFWKHWIQTKDGQCGSPLVSTRDGFIVGIHSASNFTNTNNYFTSVPKNFMELLTNQEAQQWVSGWRLNADSVLWGGHKVFMVKPEEPFQPVKEATQL [R10V]	0.0624	0.0489	0.072	0.0705		0.067	0.0635	0.0843	0.0645	0.0533		0.0645	0.0677	0.061	0.0786		0.0621	0.0439	
MGESLFKGPRDYNPISSSICHLTNESDGHTTSLYGIGFGPFIITNKHLFRRNNGTLVVQSLHGVFKVKDTTTLQQHLVDGRDMIIIRMPKDFPPFPQKLKFREPQREERICLVTTNFQTKSMSSMVSDTSCTFPSGDGIFWKHWIQTKDGQCGSSLVSTRDGFIVGIHSASNFTNTNNYFTSVPKNFMELLTNQEAQQWVSGWRLNADSVLWGGHKVFMVKPEEPFQPVKEATQL [P155S]	0.0639	0.045	0.0617	0.0636		0.0485	0.0598	0.0589	0.0666	0.0767	0.0602	0.0555		0.0502	0.0579	0.0466	0.0522	0.046	
MGESLFKGPRDYNPISSSICHLTNESDGHTPSLYGIGFGPFIITNKHLFRRNNGTLVVQSLHGVFKVKDTTTLQQHLVDGRDMIIIRMPKDFPPFPQKLKFREPQREERICLVTTNFQTKSMSSMVSDTSCTFPSGDGIFWKHWIQTKDGQCGSPLVSTRDGFIVGIHSASNFTNTNNYFTSVPKNFMELLTNQEAQQWVSGWRLNADSVLWGGHKVFMVKPEEPFQPVKEATQL [T31P]	0.068	0.0477	0.0649			0.0481	0.0557	0.0468	0.0647		0.0586	0.0746		0.0501	0.0466	0.0543	0.0517	0.0671	
MGESLFKGPRDYNPISSSICYLTNESDGHTTSLYGIGFGPFIITNKHLFRRNNGTLVVQSLHGVFKVKDTTTLQQHLVDGRDMIIIRMPKDFPPFPQKLKFREPQREERICLVTTNFQTKSMSSMVSDTSCTFPSGDGIFWKHWIQTKDGQCGSPLVSTRDGFIVGIHSASNFTNTNNYFTSVPKNFMELLTNQEAQQWVSGWRLNADSVLWGGHKVFMVKPEEPFQPVKEATQL [H21Y]	0.0551	0.0643	0.0771			0.0643	0.0784		0.0636			0.0582			0.0576	0.0581	0.066	0.0572	0.053
MGESLFKGPRDYNPISSSICHLSNESDGHTTSLYGIGFGPFIITNKHLFRRNNGTLVVQSLHGVFKVKDTTTLQQHLVDGRDMIIIRMPKDFPPFPQKLKFREPQREERICLVTTNFQTKSMSSMVSDTSCTFPSGDGIFWKHWIQTKDGQCGSPLVSTRDGFIVGIHSASNFTNTNNYFTSVPKNFMELLTNQEAQQWVSGWRLNADSVLWGGHKVFMVKPEEPFQPVKEATQL [T23S]	0.0639	0.0666	0.0735	0.0655	0.0669	0.0701	0.0811		0.0567	0.0609	0.0608	0.0566		0.0664	0.068		0.0513	0.0528	
MGESLFKGPRDWNPISSSICHLTNESDGHTTSLYGIGFGPFIITNKHLFRRNNGTLVVQSLHGVFKVKDTTTLQQHLVDGRDMIIIRMPKDFPPFPQKLKFREPQREERICLVTTNFQTKSMSSMVSDTSCTFPSGDGIFWKHWIQTKDGQCGSPLVSTRDGFIVGIHSASNFTNTNNYFTSVPKNFMELLTNQEAQQWVSGWRLNADSVLWGGHKVFMVKPEEPFQPVKEATQL [Y12W]	0.0644	0.0614	0.0705		0.0693	0.0631	0.0525	0.0865		0.0645	0.0648	0.0795	0.0633	0.0202	0.0732	0.0393	0.0669	0.0563	0.0512
MGESLFKGPRLYNPISSSICHLTNESDGHTTSLYGIGFGPFIITNKHLFRRNNGTLVVQSLHGVFKVKDTTTLQQHLVDGRDMIIIRMPKDFPPFPQKLKFREPQREERICLVTTNFQTKSMSSMVSDTSCTFPSGDGIFWKHWIQTKDGQCGSPLVSTRDGFIVGIHSASNFTNTNNYFTSVPKNFMELLTNQEAQQWVSGWRLNADSVLWGGHKVFMVKPEEPFQPVKEATQL [D11L]	0.0576	0.0723	0.075	0.0603	0.0676	0.0623	0.0611	0.0717	0.0678	0.0497	0.0599	0.0634	0.0533	0.0637	0.0685	0.0636	0.059	0.0641	
